The other results are listed elsewhere or left out. Binding of human transcription factors and regulators to the viral nucleoprotein by AlphaScreen, crude cell-free proteins, amounts not normalised, one pass. Fold of the Venus control; higher = more signal. No active / inactive call. Single-pass screen; sequences are the whole Swiss-Prot entries looked up by name.
B1: ELF2, Q15723 (protein)
chain: MTSAVVDSGGTILELSSNGVENQEESEKVSEYPAVIVEPVPSARLEQGYAAQVLVYDDETYMMQDVAEEQEVETENVETVEASVHSSNAHCTDKTIEAAEALLHMESPTCLRDSRSPVEVFVPPCVSTPEFIHAAMRPDVITETVVEVSTEESEPMDTSPIPTSPDSHEPMKKKKVGRKPKTQQSPISNGSPELGIKKKPREGKGNTTYLWEFLLDLLQDKNTCPRYIKWTQREKGIFKLVDSKAVSKLWGKHKNKPDMNYETMGRALRYYYQRGILAKVEGQRLVYQFKDMPKNIVVIDDDKSETCNEDLAGTTDEKSLERVSLSAESLLKAASSVRSGKNSSPINCSRAEKGVARVVNITSPGHDASSRSPTTTASVSATAAPRTVRVAMQVPVVMTSLGQKISTVAVQSVNAGAPLITSTSPTTATSPKVVIQTIPTVMPASTENGDKITMQPAKIITIPATQLAQCQLQTKSNLTGSGSINIVGTPLAVRALTPVSIAHGTPVMRLSMPTQQASGQTPPRVISAVIKGPEVKSEAVAKKQEHDVKTLQLVEEKPADGNKTVTHVVVVSAPSAIALPVTMKTEGLVTCEK
B2: MYF5, P13349 (protein)
chain: MDVMDGCQFSPSEYFYDGSCIPSPEGEFGDEFVPRVAAFGAHKAELQGSDEDEHVRAPTGHHQAGHCLMWACKACKRKSTTMDRRKAATMRERRRLKKVNQAFETLKRCTTTNPNQRLPKVEILRNAIRYIESLQELLREQVENYYSLPGQSCSEPTSPTSNCSDGMPECNSPVWSRKSSTFDSIYCPDVSNVYATDKNSLSSLDCLSNIVDRITSSEQPGLPLQDLASLSPVASTDSQPATPGASSSRLIYHVL
B3: HINFP, Q9BQA5 (protein)
chain: MPPPGKVPRKENLWLQCEWGSCSFVCSTMEKFFEHVTQHLQQHLHGSGEEEEEEEEDDPLEEEFSCLWQECGFCSLDSSADLIRHVYFHCYHTKLKQWGLQALQSQADLGPCILDFQSRNVIPDIPDHFLCLWEHCENSFDNPEWFYRHVEAHSLCCEYEAVGKDNPVVLCGWKGCTCTFKDRSKLREHLRSHTQEKVVACPTCGGMFANNTKFLDHIRRQTSLDQQHFQCSHCSKRFATERLLRDHMRNHVNHYKCPLCDMTCPLPSSLRNHMRFRHSEDRPFKCDCCDYSCKNLIDLQKHLDTHSEEPAYRCDFENCTFSARSLCSIKSHYRKVHEGDSEPRYKCHVCDKCFTRGNNLTVHLRKKHQFKWPSGHPRFRYKEHEDGYMRLQLVRYESVELTQQLLRQPQEGSGLGTSLNESSLQGIILETVPGEPGRKEEEEEGKGSEGTALSASQDNPSSVIHVVNQTNAQGQQEIVYYVLSEAPGEPPPAPEPPSGGIMEKLQGIAEEPEIQMV
B4: PPARA, Q07869 (protein)
chain: MVDTESPLCPLSPLEAGDLESPLSEEFLQEMGNIQEISQSIGEDSSGSFGFTEYQYLGSCPGSDGSVITDTLSPASSPSSVTYPVVPGSVDESPSGALNIECRICGDKASGYHYGVHACEGCKGFFRRTIRLKLVYDKCDRSCKIQKKNRNKCQYCRFHKCLSVGMSHNAIRFGRMPRSEKAKLKAEILTCEHDIEDSETADLKSLAKRIYEAYLKNFNMNKVKARVILSGKASNNPPFVIHDMETLCMAEKTLVAKLVANGIQNKEAEVRIFHCCQCTSVETVTELTEFAKAIPGFANLDLNDQVTLLKYGVYEAIFAMLSSVMNKDGMLVAYGNGFITREFLKSLRKPFCDIMEPKFDFAMKFNALELDDSDISLFVAAIICCGDRPGLLNVGHIEKMQEGIVHVLRLHLQSNHPDDIFLFPKLLQKMADLRQLVTEHAQLVQIIKKTESDAALHPLLQEIYRDMY
B5: NFKBIL1, Q9UBC1 (protein)
chain: MSNPSPQVPEEEASTSVCRPKSSMASTSRRQRRERRFRRYLSAGRLVRAQALLQRHPGLDVDAGQPPPLHRACARHDAPALCLLLRLGADPAHQDRHGDTALHAAARQGPDAYTDFFLPLLSRCPSAMGIKNKDGETPGQILGWGPPWDSAEEEEEDDASKEREWRQKLQGELEDEWQEVMGRFEGDASHETQEPESFSAWSDRLAREHAQKCQQQQREAEGSRRPPRAEGSSQSWRQQEEEQRLFRERARAKEEELRESRARRAQEALGDREPKPTRAGPREEHPRGAGRGSLWRFGDVPWPCPGGGDPEAMAAALVARGPPLEEQGALRRYLRVQQVRWHPDRFLQRFRSQIETWELGRVMGAVTALSQALNRHAEALK
B6: LMO2, P25791 (protein)
chain: MSSAIERKSLDPSEEPVDEVLQIPPSLLTCGGCQQNIGDRYFLKAIDQYWHEDCLSCDLCGCRLGEVGRRLYYKLGRKLCRRDYLRLFGQDGLCASCDKRIRAYEMTMRVKDKVYHLECFKCAACQKHFCVGDRYLLINSDIVCEQDIYEWTKINGMI
B7: CHCHD3, Q9NX63 (protein)
chain: MGGTTSTRRVTFEADENENITVVKGIRLSENVIDRMKESSPSGSKSQRYSGAYGASVSDEELKRRVAEELALEQAKKESEDQKRLKQAKELDRERAAANEQLTRAILRERICSEEERAKAKHLARQLEEKDRVLKKQDAFYKEQLARLEERSSEFYRVTTEQYQKAAEEVEAKFKRYESHPVCADLQAKILQCYRENTHQTLKCSALATQYMHCVNHAKQSMLEKGG
B8: MEIS2, O14770 (protein)
chain: MAQRYDELPHYGGMDGVGVPASMYGDPHAPRPIPPVHHLNHGPPLHATQHYGAHAPHPNVMPASMGSAVNDALKRDKDAIYGHPLFPLLALVFEKCELATCTPREPGVAGGDVCSSDSFNEDIAVFAKQVRAEKPLFSSNPELDNLMIQAIQVLRFHLLELEKVHELCDNFCHRYISCLKGKMPIDLVIDERDGSSKSDHEELSGSSTNLADHNPSSWRDHDDATSTHSAGTPGPSSGGHASQSGDNSSEQGDGLDNSVASPGTGDDDDPDKDKKRQKKRGIFPKVATNIMRAWLFQHLTHPYPSEEQKKQLAQDTGLTILQVNNWFINARRRIVQPMIDQSNRAGFLLDPSVSQGAAYSPEGQPMGSFVLDGQQHMGIRPAGLQSMPGDYVSQGGPMGMSMAQPSYTPPQMTPHPTQLRHGPPMHSYLPSHPHHPAMMMHGGPPTHPGMTMSAQSPTMLNSVDPNVGGQVMDIHAQ
B9: SPDEF, O95238 (protein)
chain: MGSASPGLSSVSPSHLLLPPDTVSRTGLEKAAAGAVGLERRDWSPSPPATPEQGLSAFYLSYFDMLYPEDSSWAAKAPGASSREEPPEEPEQCPVIDSQAPAGSLDLVPGGLTLEEHSLEQVQSMVVGEVLKDIETACKLLNITADPMDWSPSNVQKWLLWTEHQYRLPPMGKAFQELAGKELCAMSEEQFRQRSPLGGDVLHAHLDIWKSAAWMKERTSPGAIHYCASTSEESWTDSEVDSSCSGQPIHLWQFLKELLLKPHSYGRFIRWLNKEKGIFKIEDSAQVARLWGIRKNRPAMNYDKLSRSIRQYYKKGIIRKPDISQRLVYQFVHPI
B10: ZNF138, P52744 (protein)
chain: MKRHEMVVAKHSALCSRFAQDLWLEQNIKDSFQKVTLSRYGKYGHKNLQLRKGCKSVDECKGHQGGFNGLNQCLKITTSKIFQCNKYVKVMHKFSNSNRHKIRHTENKHFRCKECDKSLCMLSRLTQHKKIHTRENFYKCEECGKTFNWSTNLSKPKKIHTGEKPYKCEVCGKAFHQSSILTKHKIIRTGEKPYKCAHCGKAFKQSSHLTRHKIIHTEEKPYKCEQCGKVFKQSPTLTKHQIIYTGEEPYKCEECGKAFNLS
B11: VAX2, Q9UIW0 (protein)
chain: MGDGGAERDRGPARRAESGGGGGRCGDRSGAGDLRADGGGHSPTEVAGTSASSPAGSRESGADSDGQPGPGEADHCRRILVRDAKGTIREIVLPKGLDLDRPKRTRTSFTAEQLYRLEMEFQRCQYVVGRERTELARQLNLSETQVKVWFQNRRTKQKKDQSRDLEKRASSSASEAFATSNILRLLEQGRLLSVPRAPSLLALTPSLPGLPASHRGTSLGDPRNSSPRLNPLSSASASPPLPPPLPAVCFSSAPLLDLPAGYELGSSAFEPYSWLERKVGSASSCKKANT
B12: CBFA2T2, O43439 (protein)
chain: MAKESGISLKEIQVLARQWKVGPEKRVPAMPGSPVEVKIQSRSSPPTMPPLPPINPGGPRPVSFTPTALSNGINHSPPTLNGAPSPPQRFSNGPASSTSSALTNQQLPATCGARQLSKLKRFLTTLQQFGNDISPEIGEKVRTLVLALVNSTVTIEEFHCKLQEATNFPLRPFVIPFLKANLPLLQRELLHCARAAKQTPSQYLAQHEHLLLNTSIASPADSSELLMEVHGNGKRPSPERREENSFDRDTIAPEPPAKRVCTISPAPRHSPALTVPLMNPGGQFHPTPPPLQHYTLEDIATSHLYREPNKMLEHREVRDRHHSLGLNGGYQDELVDHRLTEREWADEWKHLDHALNCIMEMVEKTRRSMAVLRRCQESDREELNYWKRRYNENTELRKTGTELVSRQHSPGSADSLSNDSQREFNSRPGTGYVPVEFWKKTEEAVNKVKIQAMSEVQKAVAEAEQKAFEVIATERARMEQTIADVKRQAAEDAFLVINEQEESTENCWNCGRKASETCSGCNIARYCGSFCQHKDWERHHRLCGQNLHGQSPHGQGRPLLPVGRGSSARSADCSVPSPALDKTSATTSRSSTPASVTAIDTNGL

These binders were tested against nucleoprotein N of Crimean-Congo hemorrhagic fever virus (assay: AlphaScreen luminescence signal relative to Venus negative control (fold); higher = stronger binding to CCHFV N).
Experimental: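 AlphaScreen binding of cell-free made, FLAG-GST-tagged human transcription factors and regulators (crude translation products) to biotinylated N protein; signal as fold of the FLAG-GST-Venus control. One pass.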
For B1, the AlphaScreen luminescence signal was 2.6. B2 gave an AlphaScreen luminescence signal of 3.21. For B3, the AlphaScreen luminescence signal was 2. Binder B4 has an AlphaScreen luminescence signal of 2.42. Binder B5 has an AlphaScreen luminescence signal of 4.14. For B6, the AlphaScreen luminescence signal was 3.53. B7 showed an AlphaScreen luminescence signal of 2.6. B8 showed an AlphaScreen luminescence signal of 1.72. Work on B9 yielded an AlphaScreen luminescence signal of 1.86. B10 was tested, and the AlphaScreen luminescence signal was 2.79. B11 showed an AlphaScreen luminescence signal of 3.77. B12 was tested, and the AlphaScreen luminescence signal was 1.67.

Source: the supplement of paper PMC12423691
